In all, about 33,000 sequences were measured (“E-score (-0.5 to 0.5)”: median about -0.011, highest 2% from about 0.28 on). This is one part of the list.
Target: T1, Gcr1 (UniProt P07261)
T1 sequence: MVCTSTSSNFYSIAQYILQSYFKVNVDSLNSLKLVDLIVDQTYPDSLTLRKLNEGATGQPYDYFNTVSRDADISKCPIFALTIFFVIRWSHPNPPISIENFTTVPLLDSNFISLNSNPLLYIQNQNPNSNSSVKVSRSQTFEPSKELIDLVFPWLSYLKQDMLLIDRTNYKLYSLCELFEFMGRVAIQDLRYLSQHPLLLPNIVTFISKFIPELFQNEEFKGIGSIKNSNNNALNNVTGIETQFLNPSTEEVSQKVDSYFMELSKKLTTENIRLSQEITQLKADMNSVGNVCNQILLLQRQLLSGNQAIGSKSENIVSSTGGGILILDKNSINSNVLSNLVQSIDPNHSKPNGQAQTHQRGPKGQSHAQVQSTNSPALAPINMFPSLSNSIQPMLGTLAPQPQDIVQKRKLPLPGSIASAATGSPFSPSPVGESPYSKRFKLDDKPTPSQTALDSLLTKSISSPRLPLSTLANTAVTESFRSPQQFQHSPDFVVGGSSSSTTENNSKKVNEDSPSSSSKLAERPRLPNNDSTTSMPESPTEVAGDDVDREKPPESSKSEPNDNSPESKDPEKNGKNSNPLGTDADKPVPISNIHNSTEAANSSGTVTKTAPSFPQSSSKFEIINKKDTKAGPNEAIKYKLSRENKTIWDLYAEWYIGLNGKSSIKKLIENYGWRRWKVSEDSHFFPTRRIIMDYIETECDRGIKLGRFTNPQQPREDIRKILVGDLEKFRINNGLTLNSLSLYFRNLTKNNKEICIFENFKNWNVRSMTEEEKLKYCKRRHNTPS
Assay: PBM E-score (8-mer binding enrichment) (E-score (-0.5 to 0.5)); higher = stronger / more preferred TF binding; most listed sequences are background and not binding sites
Settings: protein concentration: 100 nM; construct: GST-full length
Summary of the method: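 GST-tagged yeast TFs (full-length or DNA-binding domain) were made by PURExpress in vitro transcription/translation and applied at about 100-200 nM to universal all-10-mer Agilent arrays. The arrays were made double-stranded by primer extension, on fresh or once-stripped slides. Bound protein was detected with fluorescent anti-GST, and scans were normalised with masliner. Each ungapped eight-base word, pooled with its reverse complement, received an E-score (modified Wilcoxon-Mann-Whitney statistic) from the Universal PBM Analysis Suite.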

First: AACTTACG
Second: CAGGAAAC
The “PBM E-score” value of the first is higher: 0.0758 for the first, 0.0542 for the second.

Compared with GTACTATA, CCGAGACC is higher in “PBM E-score” value: -0.0299 for the first, 0.125 for the second.

Going from TTAATCAA to AAATCCGG, the “PBM E-score” value rises from -0.0296 to 0.00044.

Going from GGGAAACC to GAACCGAA, the “PBM E-score” value falls from 0.165 to 0.0422.

First: GTGAAAAC
Second: AGCGAAGC
The “PBM E-score” value of the first is lower: -0.0762 for the first, -0.0655 for the second.

First: CAAAAGCA
Second: AAGTTGAC
The “PBM E-score” value of the first is higher: 0.0707 for the first, 0.0421 for the second.

Going from GGAGCAAC to ACAGCGCT, the “PBM E-score” value rises from -0.122 to -0.114.

Going from CATCACCC to CGAGGGGA, the “PBM E-score” value falls from 0.064 to -0.0334.

Compared with CGTTAATC, ATCCCCCG is higher in “PBM E-score” value: 0.023 for the first, 0.175 for the second.

Compared with CTAAACAA, ACCAACCT is lower in “PBM E-score” value: 0.124 for the first, -0.0617 for the second.

Going from GGTGATAA to CGGGGCTC, the “PBM E-score” value falls from 0.139 to -0.109.

Compared with AGGTAAAT, CCACTTGA is higher in “PBM E-score” value: 0.1 for the first, 0.138 for the second.

Compared with ACAGTCTA, TAGCACTA is higher in “PBM E-score” value: -0.103 for the first, 0.152 for the second.

First: GGTCAGTA
Second: GGATGCCA
The “PBM E-score” value of the first is lower: -0.203 for the first, 0.454 for the second.

Going from GGGAATAC to GCTATTAC, the “PBM E-score” value rises from -0.0454 to 0.0485.

Compared with ATTCATCG, ACACTGAG is higher in “PBM E-score” value: -0.166 for the first, -0.126 for the second.

Going from CGTGCCGC to ACTTGAAG, the “PBM E-score” value rises from -0.241 to -0.066.

Compared with CAAAACGG, AAACCGAC is lower in “PBM E-score” value: 0.0262 for the first, -0.0881 for the second.

First: GCTCTTCC
Second: CCTAACCG
The “PBM E-score” value of the first is lower: -0.111 for the first, -0.00312 for the second.

Going from ATCTCTGA to AAAGTGGT, the “PBM E-score” value rises from -0.0114 to 0.167.

First: ACACATAC
Second: ATCAAGCC
The “PBM E-score” value of the first is higher: -0.0338 for the first, -0.179 for the second.

Compared with CTAAATGA, CCGCGGGC is lower in “PBM E-score” value: 0.0742 for the first, -0.0944 for the second.

First: AAGCCCTC
Second: TCATAAAA
The “PBM E-score” value of the first is lower: -0.0243 for the first, 0.0118 for the second.

First: ACGGAATG
Second: AGCGGTTC
The “PBM E-score” value of the first is higher: 0.0972 for the first, 0.069 for the second.

Compared with ACACCTAA, CCAGTGTC is lower in “PBM E-score” value: 0.0466 for the first, -0.124 for the second.

Compared with GGACTGAA, AATCCGAT is higher in “PBM E-score” value: -0.175 for the first, 0.0605 for the second.

Compared with CAGAAACA, GCAAACTA is lower in “PBM E-score” value: 0.121 for the first, 0.0887 for the second.

Compared with ATTGGTAA, GCGTGGCC is lower in “PBM E-score” value: 0.0893 for the first, -0.164 for the second.

Compared with AGCGATGC, AAACCAGA is higher in “PBM E-score” value: -0.287 for the first, 0.0613 for the second.

Going from ACGGGGAA to AACACCCT, the “PBM E-score” value rises from -0.0966 to 0.0941.

First: ACAGATGA
Second: CTTCATCC
The “PBM E-score” value of the first is higher: 0.0106 for the first, -0.101 for the second.

First: CGGCCTTA
Second: ACAAGTGC
The “PBM E-score” value of the first is lower: -0.152 for the first, -0.149 for the second.

Going from CTCGAGCA to AGAATCAT, the “PBM E-score” value falls from -0.0607 to -0.178.

Compared with CGCCTGTC, CAGTCAGG is higher in “PBM E-score” value: -0.105 for the first, -0.0592 for the second.

Going from CAAGAGAG to GAAATATA, the “PBM E-score” value rises from -0.0666 to 0.125.

Going from ATCACTGA to CTACTGCA, the “PBM E-score” value falls from 0.0727 to -0.116.

First: ATCGTCAG
Second: GCCGTACC
The “PBM E-score” value of the first is lower: -0.142 for the first, -0.107 for the second.

First: ACGAAATA
Second: CAGGCCGG
The “PBM E-score” value of the first is higher: 0.0201 for the first, -0.251 for the second.

First: GTCGAGGA
Second: ACCATGCC
The “PBM E-score” value of the first is lower: -0.16 for the first, 0.00147 for the second.

First: AACCACAG
Second: TAGATACA
The “PBM E-score” value of the first is lower: -0.114 for the first, -0.00219 for the second.

Going from AAGGCGTC to CTGTAAAG, the “PBM E-score” value falls from 0.165 to 0.0144.

Going from CATGCGAA to CCCTCATC, the “PBM E-score” value falls from 0.139 to -0.0318.

Going from CCTGCCCA to CCGTGGAG, the “PBM E-score” value rises from -0.178 to -0.117.

Compared with CAGTCCGA, AATAGACG is higher in “PBM E-score” value: -0.131 for the first, 0.286 for the second.

Going from ATTGTGAG to ACGCCAAT, the “PBM E-score” value rises from -0.17 to 0.0703.

First: CCTCGCAG
Second: ACGTCATA
The “PBM E-score” value of the first is lower: -0.161 for the first, -0.0778 for the second.

Compared with CCTATAGC, CTTAGGTC is higher in “PBM E-score” value: -0.0383 for the first, -0.00353 for the second.

Going from ATCCCACG to AGCATACG, the “PBM E-score” value falls from 0.0222 to -0.188.

Going from CGCTCAGA to CCTTCGGA, the “PBM E-score” value falls from 0.155 to 0.0526.

First: AACTGCCA
Second: AGCGCATA
The “PBM E-score” value of the first is higher: 0.136 for the first, -0.0791 for the second.

Going from CTCACTAA to CCGTCAGC, the “PBM E-score” value rises from -0.193 to -0.182.

Compared with ACCATCAA, CTAATATC is higher in “PBM E-score” value: -0.00248 for the first, 0.0746 for the second.

First: GCCAGATA
Second: AACGGTCA
The “PBM E-score” value of the first is higher: 0.0103 for the first, -0.0326 for the second.

First: GCAGGGCC
Second: CATGGGAC
The “PBM E-score” value of the first is higher: -0.0699 for the first, -0.0763 for the second.

Going from GCACAGTA to CGACTTTC, the “PBM E-score” value falls from -0.0105 to -0.0428.

First: AATACCGG
Second: GCAAGAAA
The “PBM E-score” value of the first is higher: 0.254 for the first, 0.0798 for the second.

First: ATCGTATC
Second: AACTGCCG
The “PBM E-score” value of the first is higher: 0.0732 for the first, -0.00624 for the second.

Going from CGCAAGAA to CCGAGACG, the “PBM E-score” value falls from 0.155 to -0.0437.

Going from CGCCGCTA to AGTGCCCA, the “PBM E-score” value falls from 0.0386 to 0.0254.

First: TAAAGCTA
Second: GATGGCAA
The “PBM E-score” value of the first is higher: 0.0575 for the first, 0.0367 for the second.

First: GGACGGAC
Second: AGTCCTTG
The “PBM E-score” value of the first is higher: -0.0721 for the first, -0.159 for the second.

Compared with CGTGAAGA, CTGGACGC is higher in “PBM E-score” value: -0.154 for the first, 0.412 for the second.

Going from GAATATCA to AGGACCGG, the “PBM E-score” value falls from -0.0967 to -0.22.

First: GGACCGGA
Second: TAACACTA
The “PBM E-score” value of the first is lower: -0.00546 for the first, 0.0834 for the second.

Compared with ACCGGGAG, ATGTCTCC is lower in “PBM E-score” value: 0.113 for the first, -0.0483 for the second.

First: ACCAAAAC
Second: ATGGACGA
The “PBM E-score” value of the first is higher: 0.087 for the first, 0.0454 for the second.

Going from GCTCTAGA to CTACTTGA, the “PBM E-score” value falls from -0.0648 to -0.0652.

Going from ATGTGGAC to ATAAGATC, the “PBM E-score” value falls from 0.0114 to -0.00262.

First: CACAACCG
Second: CAGATCCC
The “PBM E-score” value of the first is lower: 0.0627 for the first, 0.156 for the second.

Compared with CCTTCTTA, GGCAGCCA is higher in “PBM E-score” value: 0.053 for the first, 0.422 for the second.

Compared with ACCGCCAA, AGGAACTG is higher in “PBM E-score” value: -0.0843 for the first, 0.077 for the second.

First: CATTCTTA
Second: ATGTTGTG
The “PBM E-score” value of the first is higher: -0.0289 for the first, -0.0505 for the second.

Going from ACCGGCGC to CTGTTACC, the “PBM E-score” value falls from 0.0222 to -0.148.

Going from GCGTAGAC to TCGACCAA, the “PBM E-score” value falls from -0.25 to -0.347.

Compared with GTGGCGTA, TATTCCAA is higher in “PBM E-score” value: -0.0888 for the first, 0.224 for the second.

First: TGAGATAA
Second: GTGGAATA
The “PBM E-score” value of the first is higher: 0.0929 for the first, 0.051 for the second.

First: ACTCCGCG
Second: GACGAGCA
The “PBM E-score” value of the first is lower: -0.0906 for the first, -0.0479 for the second.

Going from ACGACAGA to CGCCAAAA, the “PBM E-score” value falls from 0.124 to 0.113.

First: ACTTCGAC
Second: CATGCTGG
The “PBM E-score” value of the first is higher: -0.0575 for the first, -0.137 for the second.

Compared with ATCCAAGA, CTCTGATC is lower in “PBM E-score” value: 0.138 for the first, -0.199 for the second.

Going from ATATGTTC to GGTATGAC, the “PBM E-score” value falls from -0.0761 to -0.272.

Compared with CCTCTGAA, CCTCGTCC is lower in “PBM E-score” value: 0.0419 for the first, -0.0638 for the second.

First: CCGTGCTC
Second: AAGCCGAT
The “PBM E-score” value of the first is lower: -0.126 for the first, -0.0786 for the second.

Compared with GGCCCAGA, ATAATCAC is higher in “PBM E-score” value: -0.0885 for the first, -0.0298 for the second.

Going from TTACAAAA to CCAGTGCA, the “PBM E-score” value rises from 0.159 to 0.212.

First: AGCAACAT
Second: CCGAGCTC
The “PBM E-score” value of the first is lower: -0.0291 for the first, 0.00959 for the second.

From the supplement of paper PMC3334620
